# Out of some 370,000 compounds screened, about 150 (0.041%) were called active. The shares of active, inactive and inconclusive entries below differ from those in the screen. Calls come from the whole dose curve; as a rule, active = well fitted inhibition curve with a large enough effect; inconclusive = small, poorly fitted or top-dose-only effect; inactive = flat fitted curve, though single readings scatter. Potencies of inconclusive entries are left out as doubtful fits.
# Target: Beta-lactamase (Escherichia coli (strain K12)) (UniProt P00811)
# Test: qHTS Inhibitors of AmpC Beta-Lactamase (assay with detergent); note: nearly all actives have a fitted effect of over 25% in size
# Details: AmpC hydrolysis of nitrocefin, absorbance 480 nm, 0.01% Triton; series mostly up to 114 µM
# Outline: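 20 mM phosphate pH 7.0 + 0.01% (detergent screen) or 0.0001% Triton X-100; 5.3 nM AmpC reagent; cpd preinc 15 min RT; nitrocefin (800 uM stock) to start; A480 q20 s × 4 min; Activity was normalised to no-enzyme and no-compound control wells.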
# Potency is the fitted concentration of half-maximal effect; tags give direction and shape of the fitted curve.
# Chain of UniProt P00811 (P00811 whole entry, looked up): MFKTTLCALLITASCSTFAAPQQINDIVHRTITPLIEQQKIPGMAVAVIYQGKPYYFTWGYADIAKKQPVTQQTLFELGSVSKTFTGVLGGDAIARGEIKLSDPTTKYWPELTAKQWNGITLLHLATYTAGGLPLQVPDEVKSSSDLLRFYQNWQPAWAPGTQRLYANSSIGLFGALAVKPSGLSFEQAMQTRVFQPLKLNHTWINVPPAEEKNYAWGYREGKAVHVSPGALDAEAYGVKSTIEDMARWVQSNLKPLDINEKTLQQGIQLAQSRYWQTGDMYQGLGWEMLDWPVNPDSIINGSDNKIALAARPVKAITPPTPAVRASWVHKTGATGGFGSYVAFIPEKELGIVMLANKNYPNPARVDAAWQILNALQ
row,Compound,Potency
1,Cc1cccc(C(=O)c2cccc(C)c2)c1,"inconclusive [inhibitor, partial curve]"
2,Cc1ccc(C)c(N2CCN(C(=O)CCS(=O)(=O)c3cccc4nonc34)CC2)c1,inactive
3,CCCS(=O)(=O)c1nc(S(=O)(=O)c2ccc(C)cc2)c(N2CCc3ccccc3C2)s1,"inconclusive [inhibitor, full curve, poor fit]"
4,CC1Cc2ccccc2N1C(=O)CSc1nnnn1C (stereo not given),"inconclusive [inhibitor, full curve, poor fit]"
5,Cc1ccc(NC(=O)CN(C)C(=O)CSc2nc3ccccc3o2)cc1,inactive
6,Cc1ccc(-c2c(C(=O)N3CCN(c4cccc(C)c4C)CC3)oc(=O)c3ccccc23)cc1,inactive
7,Cc1ccc(-c2noc(C3CCCN(S(=O)(=O)c4ccc5ccccc5c4)C3)n2)o1 (stereo not given),"inconclusive [inhibitor, single point]"
8,O=c1[nH]c(C2CCN(S(=O)(=O)c3ccccc3F)CC2)nc2c1nnn2Cc1ccc(F)cc1,inactive
9,CCc1cc(C(=O)Nc2cnn(Cc3ccc(F)cc3)c2)no1,inactive
10,Cc1cccc(NC(=O)CSCC(=O)Nc2ccc(S(=O)(=O)N3CCCCC3)cc2)c1,"inconclusive [inhibitor, partial curve, poor fit]"
11,O=C(Nc1cc(=O)[nH]c2nc(-c3ccccc3)nn12)c1ccccc1Cl,inactive
12,N[C@@H](Cc1ccccc1)c1nnc(SCc2ccccc2F)o1,inactive
13,Cc1ccccc1Cc1c(C)nc2nc(SCC(=O)NCCCN3CCCC3)nn2c1C,inactive
14,CSc1ncccc1C(=O)Nc1nc(C(C)(C)C)cs1,inactive
15,Cc1ccc(NC(=O)Cn2cc([N+](=O)[O-])nc2C)cc1C,"inconclusive [inhibitor, full curve]"
16,O=C(CNC(=O)c1ccc(Cl)cc1Cl)NCC1CCCO1 (stereo not given),"inconclusive [inhibitor, full curve, poor fit]"
17,Cc1cccc(NC(=S)NCCN(C2CCCCC2)C2CCCC2)c1,"inconclusive [inhibitor, single point]"
18,CC(C)(C)OC(=O)N[C@H](C(=O)OC(C)(C)C)c1ccc2ccccc2c1,inactive
19,Cn1c(=O)[nH]c(=O)c2c1nc(NCCCn1ccnc1)n2Cc1cccc(Br)c1,"inconclusive [inhibitor, partial curve]"
20,COc1ccc(CNn2c(-c3ccccc3F)nc3ccccc3c2=O)cc1OC,"inconclusive [inhibitor, partial curve]"
21,CCCCn1c(N)c(N(CCOC)C(=O)c2cccc(S(=O)(=O)N3CCCCC3)c2)c(=O)[nH]c1=O,"inconclusive [inhibitor, full curve, poor fit]"
22,Cn1c(N)c(C(=O)COC(=O)CNS(=O)(=O)c2cccc(Cl)c2)c(=O)n(C)c1=O,"inconclusive [inhibitor, full curve, poor fit]"

row,Compound,Potency
1,CCOc1ccc(-n2c(SCC(=O)Nc3ccccc3OC)nc3c(oc4ccccc43)c2=O)cc1,"inconclusive [inhibitor, single point]"
2,Cc1ccc(NC(=O)CN(C)C(=O)CSc2nc(C)cc(C)n2)cc1,"inconclusive [inhibitor, partial curve, poor fit]"
3,Cc1ccc2oc(=O)c3cnn(CC(=O)N(C)c4ccc(F)cc4)c3c2c1,inactive
4,Cc1ccc(C)c(S(=O)(=O)N2CCCCC2CCNC(=O)C(=O)NCCc2ccco2)c1 (stereo not given),"inconclusive [inhibitor, full curve, poor fit]"
5,Cc1cccc(OCc2nnc(SCC(=O)OC3CCCCC3)o2)c1,"inconclusive [inhibitor, partial curve]"
6,O=C(CNC(=O)c1ccccn1)N/N=C/c1ccccc1,"inconclusive [inhibitor, partial curve, poor fit]"
7,Cc1ccc(C)c(OCC(=O)O/N=C(\N)c2ccccn2)c1,"inconclusive [inhibitor, single point]"
8,CN(Cc1nc(Cc2ccccc2F)no1)[C@@H]1CS(=O)(=O)C[C@H]1O,inactive
9,Cc1cc(C)c(S(=O)(=O)N2CCCC2CNC(=O)c2ccc3c(c2)OCO3)c(C)c1 (stereo not given),"inconclusive [inhibitor, full curve, poor fit]"
10,Cc1ccn(CCC(=O)N2c3ccccc3CC2C)n1 (stereo not given),"inconclusive [inhibitor, full curve, poor fit]"
11,COC(=O)C(CCSC)NC(=O)Cn1ncc2c(=O)oc3ccccc3c21 (stereo not given),"inconclusive [inhibitor, full curve, poor fit]"
12,CC1(C)CC(=O)C(C(O)c2cccc([N+](=O)[O-])c2)C(C)(C)N1 (stereo not given),"inconclusive [inhibitor, single point]"
13,COc1ccc(S(=O)(=O)N(C)C)cc1NC(=O)COC(=O)c1nn(C)c(=O)c2ccccc12,"inconclusive [inhibitor, partial curve]"
14,O=C(CCn1cnnn1)Nc1ccc(Cl)cc1Cl,"inconclusive [inhibitor, single point]"
15,CCN(CC(=O)NCc1cccs1)C(=O)c1cccc(S(=O)(=O)NCc2ccccc2)c1,"inconclusive [inhibitor, partial curve, poor fit]"
16,COc1ccc(NC(=O)c2ccccc2-c2ccccc2C(=O)O)cc1,inactive
17,CCCOC1CCCN(C(=O)c2ccc(OC)c(OC3CCN(C(C)C)CC3)c2)C1 (stereo not given),inactive
18,COC(=O)[C@@H](NC(=O)Nc1ccc2c(c1)OCCO2)C(C)C,"inconclusive [inhibitor, full curve, poor fit]"
19,COc1ccc(-c2noc3c2-c2nc(C4CCCCC4)sc2CC3)cc1,"inconclusive [inhibitor, full curve, poor fit]"
20,Cc1ccc2c(N)[nH]nc2n1,inactive
21,CC(=O)c1cc(C)ccc1OC(=O)c1cccc2nc(C)oc12,"inconclusive [inhibitor, partial curve]"
22,CCOCCCNC(=O)c1c[nH]c2ccc(C)cc2c1=O,"inconclusive [inhibitor, full curve, poor fit]"

row,Compound,Potency
1,Cc1nn(CC(=O)Nc2ccc(C(=O)N3CCCC3)cc2)c(=O)c2ccccc12,"inconclusive [inhibitor, full curve, poor fit]"
2,COC(=O)CSc1nnc(CNS(=O)(=O)c2ccc(C)cc2)n1C,"inconclusive [inhibitor, full curve, poor fit]"
3,N#Cc1nc(-c2ccccc2F)oc1NCCc1ccccc1,"inconclusive [inhibitor, partial curve]"
4,COC(=O)c1cc(NC2c3ncccc3C(=O)N2Cc2ccccc2)cc(C(=O)OC)c1 (stereo not given),"inconclusive [inhibitor, partial curve]"
5,COc1ccc(OCC(=O)O/N=C(\N)Cc2ccc(Cl)cc2)cc1,"inconclusive [inhibitor, single point]"
6,CCCC[C@]12Cc3cc(C#N)ccc3C(O1)c1c(c3cc(F)ccc3oc1=O)O2,"inconclusive [inhibitor, full curve]"
7,O=C(NCc1ccc2c(c1)OCO2)C1CCC(CNc2c(N3CCCC3)c(=O)c2=O)CC1 (stereo not given),"inconclusive [inhibitor, full curve, poor fit]"
8,CC/C(=C\C1CCCCC1)C(NP(=O)(c1ccccc1)c1ccccc1)c1ccccc1 (stereo not given),inactive
9,CCN(CC)c1nc(Nc2ccccc2)nc(Oc2ccc(=O)n(C)n2)n1,"inconclusive [inhibitor, full curve, poor fit]"
10,CCc1ccc(NC(=O)COC(=O)Cn2cnc3ccccc32)cc1,"inconclusive [inhibitor, full curve, poor fit]"
11,CCC(C)Sc1ccc([C@H]2N[C@@](CC(C)C)(C(=O)OC)[C@H]3C(=O)N(C)C(=O)[C@@H]23)cc1 (stereo not given in full),"inconclusive [inhibitor, single point]"
12,CCOC(=O)c1[nH]c2c(c1C)C(=O)CC(c1ccc(OC)c(OC)c1)C2 (stereo not given),"inconclusive [inhibitor, full curve, poor fit]"
13,CN(C)CCCN(C(=O)c1ccc2c(c1)CCCC2)c1nc2ccc(F)cc2s1,inactive
14,O=C(Nc1ccc(N2CCOCC2)c(Cl)c1)c1ccco1,"inconclusive [inhibitor, full curve, poor fit]"
15,O=C(OCCN1C(=O)c2cccc3c(N4CCOCC4)ccc(c23)C1=O)c1ccc(Cl)cc1,"inconclusive [inhibitor, partial curve]"
16,COc1cc(C(=O)NCCCOC(C)C)ccc1OC1CCN(C(C)=O)CC1,"inconclusive [inhibitor, partial curve, poor fit]"
17,COC(=O)CC1(C(=O)OC)Oc2ccc(Br)cc2C(=O)N1c1ccc(Br)cc1Cl (stereo not given),"inconclusive [inhibitor, single point]"
18,CNS(=O)(=O)c1cccc(C(=O)OCC(=O)c2cc(C)n(CC3CCCO3)c2C)c1 (stereo not given),"inconclusive [inhibitor, full curve, poor fit]"
19,Cc1ccccc1C(=O)Nc1ccc(C(=O)N/N=C/c2ccc(O)cc2)cc1,inactive
20,COc1ccc(S(=O)(=O)NCc2cn3c(C)csc3n2)cc1F,"inconclusive [inhibitor, full curve, poor fit]"
21,CCC(C)(C)n1nnnc1C(C(C)C)N1CCSCC1 (stereo not given),"inconclusive [inhibitor, partial curve, poor fit]"

# Reference: PubChem BioAssay AID485294 (National Center for Advancing Translational Sciences (NCATS), 2010)
